Source: PubChem BioAssay AID504332 (National Center for Advancing Translational Sciences (NCATS), 2011)
About 31,000 (8.9%) of roughly 350,000 compounds were called active. The shares of active, inactive and inconclusive entries below differ from those in the screen. The call rests on the fitted dose curve; in most records, active means well fitted inhibition curve with a large enough effect; inconclusive means small, poorly fitted or top-dose-only effect; inactive means no such curve, though single readings can be large or run the other way. Potencies beside an inconclusive call are fits to weak or partial responses and may not hold up.
Further: nearly all actives have a fitted effect of over 75% in size.
On the % scale 0 is the no-effect control and ±100 the full control effect; potency means the concentration at half of the fitted maximal effect; tags describe the fitted curve by direction and shape.

These molecules were tested against Histone-lysine N-methyltransferase EHMT2 (Homo sapiens) (UniProt Q96KQ7) (assay: qHTS Assay for Inhibitors of Histone Lysine Methyltransferase G9a). Conditions: G9a H3K9 monomethylation, AlphaScreen, 2 h; activity, negative = inhibition: at 59 µM (top of the series) unless noted.
UniProt Q96KQ7, sequence (Q96KQ7 whole entry, looked up): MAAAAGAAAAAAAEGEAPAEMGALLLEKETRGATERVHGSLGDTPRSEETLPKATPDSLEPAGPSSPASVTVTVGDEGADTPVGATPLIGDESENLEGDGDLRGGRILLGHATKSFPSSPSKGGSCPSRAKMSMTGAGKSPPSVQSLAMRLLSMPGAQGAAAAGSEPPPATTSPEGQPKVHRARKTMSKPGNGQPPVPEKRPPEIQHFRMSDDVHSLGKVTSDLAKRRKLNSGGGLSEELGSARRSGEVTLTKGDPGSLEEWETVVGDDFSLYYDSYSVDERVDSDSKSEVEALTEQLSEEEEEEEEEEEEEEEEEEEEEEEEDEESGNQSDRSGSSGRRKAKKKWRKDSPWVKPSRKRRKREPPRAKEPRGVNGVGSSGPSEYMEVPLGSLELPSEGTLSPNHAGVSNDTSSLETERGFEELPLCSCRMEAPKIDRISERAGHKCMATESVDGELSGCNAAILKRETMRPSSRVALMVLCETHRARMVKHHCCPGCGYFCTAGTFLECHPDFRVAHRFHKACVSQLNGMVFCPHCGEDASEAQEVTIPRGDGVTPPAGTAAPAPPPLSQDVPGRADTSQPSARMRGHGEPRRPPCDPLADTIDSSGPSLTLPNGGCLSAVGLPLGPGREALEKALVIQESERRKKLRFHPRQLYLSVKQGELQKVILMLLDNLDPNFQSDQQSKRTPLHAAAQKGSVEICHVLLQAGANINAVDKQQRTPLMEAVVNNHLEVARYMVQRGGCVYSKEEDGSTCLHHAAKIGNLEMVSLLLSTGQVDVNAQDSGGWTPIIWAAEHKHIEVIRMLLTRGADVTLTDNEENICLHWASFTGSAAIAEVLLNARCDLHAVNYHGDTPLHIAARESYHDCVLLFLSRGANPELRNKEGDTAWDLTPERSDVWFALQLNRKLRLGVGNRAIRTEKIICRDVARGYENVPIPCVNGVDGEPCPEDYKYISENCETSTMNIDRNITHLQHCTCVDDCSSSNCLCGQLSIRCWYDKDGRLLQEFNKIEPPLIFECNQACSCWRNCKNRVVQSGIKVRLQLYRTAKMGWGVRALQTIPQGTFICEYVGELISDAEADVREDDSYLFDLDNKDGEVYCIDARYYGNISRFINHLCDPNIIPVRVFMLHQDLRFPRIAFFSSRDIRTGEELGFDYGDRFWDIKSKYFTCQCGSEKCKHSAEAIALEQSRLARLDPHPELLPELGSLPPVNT
Procedure, shortened: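 AlphaScreen detection with an anti-monomethyl H3K9 antibody quantified product after a 2 h room-temperature reaction containing 500 nM biotinylated H3K9 peptide, 20 µM SAM and 20 nM enzyme, which had been preincubated 15 min with compound.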
With `CC(=O)Nc1ccc2nc(SCCOc3cc(C)cc(C)c3)sc2c1` the “activity, negative = inhibition” value was inactive: -9.85%. In the case of `CC(Sc1nnc(-c2cccs2)n1C1CC1)C(=O)NCC1CCCO1` (configuration not stated), the activity, negative = inhibition is reported as inactive: 29.1% [at 12.7 µM]. In the case of `CN(C)c1ccc(/C=C(\C#N)c2nc(-c3ccc(Cl)c(Cl)c3)cs2)cc1`, the Potency is reported as inconclusive: 7.94 µM [inhibitor, partial curve, poor fit]. In the case of `Cc1c(S(=O)(=O)NC2CCCCCC2)c(=O)n(C)c(=O)n1C`, the Potency is reported as inconclusive: 50.1 µM [inhibitor, partial curve, poor fit]. With `OCCCc1cn(CC2CCCCC2)nn1` the Potency was inconclusive: 89.1 µM [inhibitor, single point]. For `O=C(Oc1ccc(C(=S)N2CCOCC2)cc1)c1ccccc1F`, the Potency was active: 25.1 µM. With `CCCCn1c(N)c(N(CC)C(=O)CCc2ccccc2)c(=O)[nH]c1=O` the Potency was inconclusive: 25.1 µM [inhibitor, single point]. With `N#Cc1nc(-c2ccccc2F)oc1N1CCCCC1` the Potency was active: 79.4 µM. `CC(C)CCN1NC2(CCCC(C)C2)NC1=S` (configuration not stated) was tested, and the Potency was active: 22.4 µM. With `CSc1nnc(C)c(=O)n1COC(=O)COc1ccccc1C` the Potency was inconclusive: 17.8 µM [inhibitor, partial curve]. `Cc1cccc(NC(=O)CN2C(=S)NC(C)(C)CC2C)c1C` (configuration not stated) was tested, and the Potency was inconclusive: 39.8 µM [inhibitor, single point]. In the case of `COc1ccc2nc3cccc(OC)c3nc2c1`, the Potency is reported as active: 22.4 µM. For `CCN(CC)S(=O)(=O)c1ccc2c(c1)nc(SCC(=O)N(C)C1CCS(=O)(=O)C1)n2CC` (configuration not stated), the Potency was inconclusive: 12.6 µM [inhibitor, partial curve, poor fit]. `COc1cc(NC(=O)c2oc3c(c2C)-c2nn(Cc4cccc(Cl)c4)cc2CC3)cc(OC)c1` was tested, and the “activity, negative = inhibition” value was inactive: -3.33%. In the case of `CCOc1cc(/C=C/c2nc3ccccc3c(=O)[nH]2)cc(Br)c1OC`, the Potency is reported as active: 50.1 µM. For `Nc1cc(Cl)nnc1Cl`, the Potency was inconclusive: 50.1 µM [inhibitor, partial curve, poor fit]. In the case of `Cc1csc(N2CCN(c3cc4c(cc3Cl)nc(-c3ccncc3)n4CCCN3CCCC3)CC2)n1`, the Potency is reported as active: 10 µM. In the case of `CCn1cc(S(=O)(=O)c2ccccc2)c(=O)c2cc(F)c(N3CCN(c4ccccc4)CC3)cc21`, the “activity, negative = inhibition” value is reported as inactive: -22.9%. For `CC1CCC(N2CCN(S(=O)(=O)Cc3ccccc3)CC2)CC1` (configuration not stated), the Potency was active: 25.1 µM. For `COc1ccc(OCc2nnc3n2N=C(c2ccc(C)cc2)CS3)cc1`, the Potency was inconclusive: 89.1 µM [inhibitor, single point]. `COc1cccc(C2=NOC(C(=O)Nc3cccc(C(C)=O)c3)C2)c1OC` (configuration not stated) was tested, and the Potency was inconclusive: 35.5 µM [inhibitor, partial curve]. For `CCOCC(=O)Nc1cc(Cl)c(OC)cc1OC`, the “activity, negative = inhibition” value was inactive: 8.6% [at 102 µM]. `CC(=O)c1ccc(OCCNS(=O)(=O)c2ccc(-n3cnnn3)cc2)cc1` was tested, and the Potency was inconclusive: 79.4 µM [inhibitor, single point]. In the case of `COc1ccc(Br)cc1CN(C)C(=O)c1ccc2c(c1)NC(=O)C(C)S2` (configuration not stated), the Potency is reported as inconclusive: 79.4 µM [inhibitor, partial curve, poor fit]. For `Cc1cc(C)c2c(N)c(C(=O)NN)sc2n1`, the “activity, negative = inhibition” value was inactive: -43.1% [at 102 µM]. With `CC(NC(=O)C(NS(=O)(=O)c1cccs1)C(C)C)c1ccc(S(N)(=O)=O)cc1` (configuration not stated) the activity, negative = inhibition was inactive: 32% [at 12.7 µM]. In the case of `CCN1CCN(c2oc(-c3ccccc3)nc2S(=O)(=O)c2ccc(C)cc2)CC1`, the Potency is reported as active: 39.8 µM. `CC(C)Sc1ncc(Cl)c(C(=O)N(Cc2ccc(N(C)C)cc2)C2CCS(=O)(=O)C2)n1` (configuration not stated) was tested, and the Potency was inconclusive: 12.6 µM [inhibitor, partial curve, poor fit]. For `CCc1nn(CC(=O)Nc2ccc(N(CC)CC)cc2C)c(=O)c2cc3sccc3n12`, the Potency was inconclusive: 2.82 µM [inhibitor, full curve, poor fit]. `Cc1ccc(Cn2c(CN3CCC(C(=O)NCCc4ccccc4)CC3)cc3ccccc32)cc1` was tested, and the Potency was active: 8.91 µM. In the case of `Cc1ccc(C)c(C(C)NC(=O)C2CCCC2)c1` (configuration not stated), the “activity, negative = inhibition” value is reported as inactive: 38% [at 102 µM]. With `CC(C)OC(=O)CN1CCN(S(=O)(=O)c2cc(Cl)ccc2Cl)CC1` the activity, negative = inhibition was inactive: -26.2% [at 12.7 µM]. For `S=C(NCc1ccco1)NCC(c1ccco1)N1CCCCC1` (configuration not stated), the “activity, negative = inhibition” value was inactive: -30.6% [at 102 µM]. With `CCOc1cc(/C=N/NC(=O)Cn2nc([N+](=O)[O-])cc2C)ccc1OCc1ccc(F)cc1` the activity, negative = inhibition was inactive: -2.36% [at 0.0925 µM]. In the case of `S=c1[nH]cc(-c2ccc(Cl)cc2)n1Cc1ccccc1`, the Potency is reported as inconclusive: 0.891 µM [inhibitor, partial curve, poor fit]. With `Cc1cc(C)c2nc(N(Cc3cccnc3)C(=O)c3cccs3)sc2c1` the “activity, negative = inhibition” value was inactive: 11.1%. `Nn1c(COc2ccccc2F)nnc1SCC(=O)NC1CCS(=O)(=O)C1` (configuration not stated) was tested, and the “activity, negative = inhibition” value was inactive: 21% [at 102 µM].
